Binding signal data for 32 sequences are collected here from paper PMC12820563, “FoxP3 forms a head-to-head dimer in vivo and stabilizes its multimerization on adjacent microsatellites”.

This is one part of the list.

This assay concerns the target T1, MBP-FoxP1dN (Mus musculus, UniProt P58462 326-579).
T1 sequence: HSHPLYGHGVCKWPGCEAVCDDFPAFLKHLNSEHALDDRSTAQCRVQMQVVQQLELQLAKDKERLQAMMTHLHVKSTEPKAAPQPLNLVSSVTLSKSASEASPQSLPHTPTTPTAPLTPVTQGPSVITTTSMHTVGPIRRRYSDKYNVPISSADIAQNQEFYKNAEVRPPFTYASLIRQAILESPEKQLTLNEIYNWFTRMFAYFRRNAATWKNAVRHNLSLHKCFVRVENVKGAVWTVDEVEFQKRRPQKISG
Briefly: PD-seq (MBP pull-down with sequencing); 20 mM Tris-HCl pH 7.5, 100 mM NaCl, 1.5 mM MgCl2, 0.4 uM protein, 0.1 uM dsDNA library, 30 min, room temperature, amylose pull-down; high values mean tight binding. The following applies: protein: recombinant; tags: His6-MBP; chain copies: 2; dsDNA, one strand shown. Summed up:
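In Tris pH 7.5 buffer with NaCl and MgCl2, 0.4 µM His6-MBP-tagged mouse FoxP3 or FoxP1 fragment lacking the N-terminus, from E. coli, met 0.1 µM Klenow-filled double-stranded degenerate DNA library for 30 min at room temperature. Three washes on amylose resin followed capture of the complexes, then proteinase K release of DNA, PCR barcoding and Illumina sequencing. Binding is taken as pooled-replicate reads-per-million enrichment of pull-down relative to input.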
Regarding “GATGATTGTTCTCCCAGCTGATGAATTCCAGGATTCGAGTAAACAAATTTTCCTAATCTTTCTGTTCAAGCGCCATCTAC”, the binding signal was 0.847 RPM ratio (pull-down/input).

Turning to “GATGATTGTTCTCCCAGCTGATGAATTCAGTCACTCGAGTAAACAAATTTTCCTAATCTTTCTGTTCAAGCGCCATCTAC”, the binding signal was 0.895 RPM ratio (pull-down/input).

“GATGATTGTTCTCCCAGCTGATGAATTGTTCTGATCGAGTAAACAAATTTTCCTAATCTTTCTGTTCAAGCGCCATCTAC”: the binding signal is 1.08 RPM ratio (pull-down/input).

In the case of “GATGATTGTTCTCCCAGCTGATGAATTATTTGACTCGAGTAAACAAATTTTCCTAATCTTTCTGTTCAAGCGCCATCTAC”, the binding signal was 1.07 RPM ratio (pull-down/input).

With “GATGATTGTTCTCCCAGCTGATGAATTTCAGAACTCGAGTAAACAAATTTTCCTAATCTTTCTGTTCAAGCGCCATCTAC”, the binding signal is 0.742 RPM ratio (pull-down/input).

Regarding “GATGATTGTTCTCCCAGCTGATGAATTCATTGTGTCGAGTAAACAAATTTTCCTAATCTTTCTGTTCAAGCGCCATCTAC”, the binding signal was 1.03 RPM ratio (pull-down/input).

Turning to “GATGATTGTTCTCCCAGCTGATGAATTCTGCAGATCGAGTAAACAAATTTTCCTAATCTTTCTGTTCAAGCGCCATCTAC”, the binding signal is 0.823 RPM ratio (pull-down/input).

Regarding “GATGATTGTTCTCCCAGCTGATGAATTCCTGATATCGAGTAAACAAATTTTCCTAATCTTTCTGTTCAAGCGCCATCTAC”, the binding signal was 0.972 RPM ratio (pull-down/input).

Consider “GATGATTGTTCTCCCAGCTGATGAATTTAAACCGTCGAGTAAACAAATTTTCCTAATCTTTCTGTTCAAGCGCCATCTAC”, for which the binding signal was 0.891 RPM ratio (pull-down/input).

On to “GATGATTGTTCTCCCAGCTGATGAATTCTATCTTTCGAGTAAACAAATTTTCCTAATCTTTCTGTTCAAGCGCCATCTAC”, for which the binding signal was 0.914 RPM ratio (pull-down/input).

Consider “GATGATTGTTCTCCCAGCTGATGAATTAGGTACCTCGAGTAAACAAATTTTCCTAATCTTTCTGTTCAAGCGCCATCTAC”, for which the binding signal is 0.844 RPM ratio (pull-down/input).

For the sequence “GATGATTGTTCTCCCAGCTGATGAATTAGCATGATCGAGTAAACAAATTTTCCTAATCTTTCTGTTCAAGCGCCATCTAC”, the binding signal was 0.948 RPM ratio (pull-down/input).

With “GATGATTGTTCTCCCAGCTGATGAATTGTCCCATTCGAGTAAACAAATTTTCCTAATCTTTCTGTTCAAGCGCCATCTAC”, the binding signal is 1.04 RPM ratio (pull-down/input).

Turning to “GATGATTGTTCTCCCAGCTGATGAATTCTGCAGTTCGAGTAAACAAATTTTCCTAATCTTTCTGTTCAAGCGCCATCTAC”, the binding signal was 0.862 RPM ratio (pull-down/input).

Consider “GATGATTGTTCTCCCAGCTGATGAATTGCTAGGATCGAGTAAACAAATTTTCCTAATCTTTCTGTTCAAGCGCCATCTAC”, for which the binding signal is 0.971 RPM ratio (pull-down/input).

For the sequence “GATGATTGTTCTCCCAGCTGATGAATTATGAAGTTCGAGTAAACAAATTTTCCTAATCTTTCTGTTCAAGCGCCATCTAC”, the binding signal is 0.883 RPM ratio (pull-down/input).

As for “GATGATTGTTCTCCCAGCTGATGAATTCCGAAAATCGAGTAAACAAATTTTCCTAATCTTTCTGTTCAAGCGCCATCTAC”, the binding signal was 0.935 RPM ratio (pull-down/input).

Turning to “GATGATTGTTCTCCCAGCTGATGAATTGTGCGCTTCGAGTAAACAAATTTTCCTAATCTTTCTGTTCAAGCGCCATCTAC”, the binding signal was 1.09 RPM ratio (pull-down/input).

“GATGATTGTTCTCCCAGCTGATGAATTCTAAGTTTCGAGTAAACAAATTTTCCTAATCTTTCTGTTCAAGCGCCATCTAC”: the binding signal was 0.972 RPM ratio (pull-down/input).

Consider “GATGATTGTTCTCCCAGCTGATGAATTCGCCCTATCGAGTAAACAAATTTTCCTAATCTTTCTGTTCAAGCGCCATCTAC”, for which the binding signal was 0.807 RPM ratio (pull-down/input).

For “GATGATTGTTCTCCCAGCTGATGAATTAAGTGAGTCGAGTAAACAAATTTTCCTAATCTTTCTGTTCAAGCGCCATCTAC”, the binding signal was 0.919 RPM ratio (pull-down/input).

In the case of “GATGATTGTTCTCCCAGCTGATGAATTAAATCATTCGAGTAAACAAATTTTCCTAATCTTTCTGTTCAAGCGCCATCTAC”, the binding signal is 1.06 RPM ratio (pull-down/input).

With “GATGATTGTTCTCCCAGCTGATGAATTCTTTTGCTCGAGTAAACAAATTTTCCTAATCTTTCTGTTCAAGCGCCATCTAC”, the binding signal was 0.898 RPM ratio (pull-down/input).

On to “GATGATTGTTCTCCCAGCTGATGAATTTCGGTCCTCGAGTAAACAAATTTTCCTAATCTTTCTGTTCAAGCGCCATCTAC”, for which the binding signal is 0.819 RPM ratio (pull-down/input).

As for “GATGATTGTTCTCCCAGCTGATGAATTACATCGATCGAGTAAACAAATTTTCCTAATCTTTCTGTTCAAGCGCCATCTAC”, the binding signal was 1.22 RPM ratio (pull-down/input).

Turning to “GATGATTGTTCTCCCAGCTGATGAATTACAAACGTCGAGTAAACAAATTTTCCTAATCTTTCTGTTCAAGCGCCATCTAC”, the binding signal is 1.32 RPM ratio (pull-down/input).

“GATGATTGTTCTCCCAGCTGATGAATTTTCTAGGTCGAGTAAACAAATTTTCCTAATCTTTCTGTTCAAGCGCCATCTAC”: the binding signal was 0.869 RPM ratio (pull-down/input).

With “GATGATTGTTCTCCCAGCTGATGAATTCGTTTACTCGAGTAAACAAATTTTCCTAATCTTTCTGTTCAAGCGCCATCTAC”, the binding signal was 1.15 RPM ratio (pull-down/input).

Turning to “GATGATTGTTCTCCCAGCTGATGAATTGCGGGCGTCGAGTAAACAAATTTTCCTAATCTTTCTGTTCAAGCGCCATCTAC”, the binding signal was 0.988 RPM ratio (pull-down/input).

As for “GATGATTGTTCTCCCAGCTGATGAATTAGTACTATCGAGTAAACAAATTTTCCTAATCTTTCTGTTCAAGCGCCATCTAC”, the binding signal is 1.09 RPM ratio (pull-down/input).

As for “GATGATTGTTCTCCCAGCTGATGAATTCGCCCTCTCGAGTAAACAAATTTTCCTAATCTTTCTGTTCAAGCGCCATCTAC”, the binding signal was 0.785 RPM ratio (pull-down/input).

Regarding “GATGATTGTTCTCCCAGCTGATGAATTACGTACATCGAGTAAACAAATTTTCCTAATCTTTCTGTTCAAGCGCCATCTAC”, the binding signal was 1.16 RPM ratio (pull-down/input).
